Assay in all cases: cell count relative to DMSO control; melanoma cells; higher = more viable cells
What all share (conditions): library dose: standard library concentration; 72 h

Assay [1] concerns 501Mel.
The test system of assay [2] is A101D.
For assay [3], the system named is A2058.
For assay [4], the system named is A375.

This is one part of the list. Most values come without repeats; read them as rough.
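Note: cells treated in 1,536-well plates, then fixed and DAPI-stained, with nuclei counted from automated high-throughput microscope images.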

In the case of `C[C@@H]1CCN(C(=O)CC#N)C[C@@H]1N(C)c1ncnc2[nH]ccc12` + C/C(O)=C(\C#N)C(=O)Nc1cc(Br)ccc1Br [LFM-A13] (first compound 5 µM, partner dose 10 µM), the cell count was determined as 92.8% in assay [1], 123% in assay [2], 128% in assay [3] and 139% in assay [4].
In the same order, the values of `CC(C)C[C@H](NC(=O)[C@H](Cc1ccccc1)NC(=O)c1cnccn1)B(O)O` [Bortezomib] + C/C(O)=C(\C#N)C(=O)Nc1cc(Br)ccc1Br [LFM-A13] (first compound 0.005 µM, partner dose 10 µM) are 7.73%, 15.8%, 15% and 91.2%.
On to `CN1CCN(c2ccc3nc(-c4c(N)c5c(F)cccc5[nH]c4=O)[nH]c3c2)CC1` [Dovitinib] + C/C(O)=C(\C#N)C(=O)Nc1cc(Br)ccc1Br [LFM-A13] (first compound 0.5 µM, partner dose 10 µM), for which the cell count in assay [1] turned out to be 62%; in assay [2], 75.1%; in assay [3], 31.9%; in assay [4], 71.8%.
The matching figures for `C=CCn1c(=O)c2cnc(Nc3ccc(N4CCN(C)CC4)cc3)nc2n1-c1cccc(C(C)(C)O)n1` + O=C(Oc1ccc([N+](=O)[O-])cc1)N1CCC(C(O)(c2ccc3c(c2)OCO3)c2ccc3c(c2)OCO3)CC1 [JZL184] (first compound 0.1 µM, partner dose 5 µM): 62.1%, 76.7%, 88.2% and 51.1%.
The matching figures for `Cc1nc(Nc2ncc(C(=O)Nc3c(C)cccc3Cl)s2)cc(N2CCN(CCO)CC2)n1` [dasatanib] + Cc1cc(SCc2sc(-c3ccc(C(F)(F)F)c(F)c3)nc2C)ccc1OCC(=O)O [GW0742] (first compound 0.02 µM, partner dose 10 µM): 80.7%, 75.8%, 75.7% and 72.3%.
With `Oc1cc(-c2nc(-c3ccccc3)[nH]c2-c2ccncc2)ccc1Cl` + C/C(O)=C(\C#N)C(=O)Nc1cc(Br)ccc1Br [LFM-A13] (first compound 1 µM, partner dose 10 µM), the cell count in assay [1] stood at 81.6%; in assay [2] it was 67.7%; in assay [3] it was 92.1%; in assay [4] it was 95.4%.
In the same order, the values of `Cc1cc(Nc2cc(N3CCN(C)CC3)nc(Sc3ccc(NC(=O)C4CC4)cc3)n2)n[nH]1` [Tozasertib] + C/C(O)=C(\C#N)C(=O)Nc1cc(Br)ccc1Br [LFM-A13] (first compound 0.03 µM, partner dose 10 µM) are 108%, 96.8%, 88.9% and 82.5%.
The matching figures for `O=C(O)C(=O)Nc1sc2c(c1C(=O)O)CCNC2` + C/C(O)=C(\C#N)C(=O)Nc1cc(Br)ccc1Br [LFM-A13] (first compound 8.33333 µM, partner dose 10 µM): 118%, 103%, 108% and 149%.
Consider `C#Cc1cccc(Nc2ncnc3cc(OCCOC)c(OCCOC)cc23)c1` [erlotinib] + C/C(O)=C(\C#N)C(=O)Nc1cc(Br)ccc1Br [LFM-A13] (first compound 4 µM, partner dose 10 µM), for which the cell count in assay [1] was determined as 101%; in assay [2], 68.6%; in assay [3], 94.6%; in assay [4], 123%.
Consider `C[C@@H]1CCN(C(=O)CC#N)C[C@@H]1N(C)c1ncnc2[nH]ccc12` + Cc1cc(SCc2sc(-c3ccc(C(F)(F)F)c(F)c3)nc2C)ccc1OCC(=O)O [GW0742] (first compound 5 µM, partner dose 10 µM), for which the cell count in assay [1] is 111%; in assay [2], 99.9%; in assay [3], 106%; in assay [4], 114%.
The matching figures for `O=C(CCCCCCC(=O)Nc1ccccc1)NO` [vorinostat] + C/C(O)=C(\C#N)C(=O)Nc1cc(Br)ccc1Br [LFM-A13] (first compound 0.4 µM, partner dose 10 µM): 60.1%, 90.8%, 98.8% and 106%.
As to `Cc1cc(Nc2cc(N3CCN(C)CC3)nc(Sc3ccc(NC(=O)C4CC4)cc3)n2)n[nH]1` [Tozasertib] + O=C(Oc1ccc([N+](=O)[O-])cc1)N1CCC(C(O)(c2ccc3c(c2)OCO3)c2ccc3c(c2)OCO3)CC1 [JZL184] (first compound 0.03 µM, partner dose 5 µM), the cell count in assay [1] turned out to be 94.5%; in assay [2] it was 75.3%; in assay [3] it was 80.1%; in assay [4] it was 106%.
In the same order, the values of `COCC[n+]1c2c(n(Cc3cnccn3)c1C)C(=O)c1ccccc1C2=O` + Cc1cc(SCc2sc(-c3ccc(C(F)(F)F)c(F)c3)nc2C)ccc1OCC(=O)O [GW0742] (first compound 0.002 µM, partner dose 10 µM) are 77.5%, 75.5%, 28.9% and 99.7%.
Turning to `CN1CCN(c2ccc3nc(-c4c(N)c5c(F)cccc5[nH]c4=O)[nH]c3c2)CC1` [Dovitinib] + O=C(Oc1ccc([N+](=O)[O-])cc1)N1CCC(C(O)(c2ccc3c(c2)OCO3)c2ccc3c(c2)OCO3)CC1 [JZL184] (first compound 0.5 µM, partner dose 5 µM), the cell count in assay [1] came to 65.5%; in assay [2], 69.1%; in assay [3] it was 23.1%; in assay [4], 69.7%.
Take `CO[C@H]1C[C@@H]2CC[C@@H](C)[C@@](O)(O2)C(=O)C(=O)N2CCCC[C@H]2C(=O)O[C@H]([C@H](C)C[C@@H]2CC[C@@H](OCCO)[C@H](OC)C2)CC(=O)[C@H](C)/C=C(\C)[C@@H](O)[C@@H](OC)C(=O)[C@H](C)C[C@H](C)/C=C/C=C/C=C/1C` [everolimus] + Cc1cc(SCc2sc(-c3ccc(C(F)(F)F)c(F)c3)nc2C)ccc1OCC(=O)O [GW0742] (first compound 0.1 µM, partner dose 10 µM): the cell count in assay [1] was 78%; in assay [2], 74.6%; in assay [3], 79.7%; in assay [4], 101%.
Turning to `Cn1c(Nc2ccc(C(F)(F)F)cc2)nc2cc(Oc3ccnc(-c4ncc(C(F)(F)F)[nH]4)c3)ccc21` + Cc1cc(SCc2sc(-c3ccc(C(F)(F)F)c(F)c3)nc2C)ccc1OCC(=O)O [GW0742] (first compound 0.4 µM, partner dose 10 µM), the cell count in assay [1] was 33.9%; in assay [2], 63.9%; in assay [3], 88.4%; in assay [4] it was 95.8%.
Take `Oc1cc(-c2nc(-c3ccccc3)[nH]c2-c2ccncc2)ccc1Cl` + O=C(Oc1ccc([N+](=O)[O-])cc1)N1CCC(C(O)(c2ccc3c(c2)OCO3)c2ccc3c(c2)OCO3)CC1 [JZL184] (first compound 1 µM, partner dose 5 µM): the cell count turned out to be 67.4% in assay [1], 61.5% in assay [2], 89.8% in assay [3] and 94.1% in assay [4].
For the molecule `Nc1ccn([C@@H]2O[C@H](CO)[C@@H](O)C2(F)F)c(=O)n1` [gemcitabine] + C/C(O)=C(\C#N)C(=O)Nc1cc(Br)ccc1Br [LFM-A13] (first compound 0.002 µM, partner dose 10 µM), the cell count turned out to be 84.7% in assay [1], 79.7% in assay [2], 67.1% in assay [3] and 91.4% in assay [4].
As to `COc1ccc(COc2ccc(Cc3cnc(N)nc3N)cc2OC)cc1` + Cc1cc(SCc2sc(-c3ccc(C(F)(F)F)c(F)c3)nc2C)ccc1OCC(=O)O [GW0742] (first compound 5 µM, partner dose 10 µM), the cell count was found to be 68.8% in assay [1], 103% in assay [2], 93.7% in assay [3] and 77.5% in assay [4].
In the case of `COc1cc(N2CCC(N3CCN(C)CC3)CC2)ccc1Nc1ncc(Cl)c(Nc2ccccc2S(=O)(=O)C(C)C)n1` + O=C(Oc1ccc([N+](=O)[O-])cc1)N1CCC(C(O)(c2ccc3c(c2)OCO3)c2ccc3c(c2)OCO3)CC1 [JZL184] (first compound 0.4 µM, partner dose 5 µM), the cell count in assay [1] was 69.6%; in assay [2] it was 82.6%; in assay [3], 51.3%; in assay [4], 79.5%.
Regarding `COc1cc2ncnc(Nc3ccc(Oc4ccccc4)cc3)c2cc1OC` + O=C(Oc1ccc([N+](=O)[O-])cc1)N1CCC(C(O)(c2ccc3c(c2)OCO3)c2ccc3c(c2)OCO3)CC1 [JZL184] (first compound 10 µM, partner dose 5 µM), the cell count in assay [1] came out at 64.9%; in assay [2] it was 81%; in assay [3] it was 94%; in assay [4], 96.9%.
In the case of `COCC[n+]1c2c(n(Cc3cnccn3)c1C)C(=O)c1ccccc1C2=O` + C/C(O)=C(\C#N)C(=O)Nc1cc(Br)ccc1Br [LFM-A13] (first compound 0.002 µM, partner dose 10 µM), the cell count came out at 86.6% in assay [1], 79.7% in assay [2], 31.3% in assay [3] and 88.5% in assay [4].
On to `CO[C@H]1C[C@@H]2CC[C@@H](C)[C@@](O)(O2)C(=O)C(=O)N2CCCC[C@H]2C(=O)O[C@H]([C@H](C)C[C@@H]2CC[C@@H](OCCO)[C@H](OC)C2)CC(=O)[C@H](C)/C=C(\C)[C@@H](O)[C@@H](OC)C(=O)[C@H](C)C[C@H](C)/C=C/C=C/C=C/1C` [everolimus] + C/C(O)=C(\C#N)C(=O)Nc1cc(Br)ccc1Br [LFM-A13] (first compound 0.1 µM, partner dose 10 µM), for which the cell count in assay [1] worked out at 67.3%; in assay [2], 76.6%; in assay [3], 66.5%; in assay [4], 87.7%.
In the same order, the values of `Nc1ccn([C@@H]2O[C@H](CO)[C@@H](O)C2(F)F)c(=O)n1` [gemcitabine] + O=C(Oc1ccc([N+](=O)[O-])cc1)N1CCC(C(O)(c2ccc3c(c2)OCO3)c2ccc3c(c2)OCO3)CC1 [JZL184] (first compound 0.002 µM, partner dose 5 µM) are 88.6%, 78.5%, 52.1% and 84.7%.
In the same order, the values of `Cc1nc(Nc2ncc(C(=O)Nc3c(C)cccc3Cl)s2)cc(N2CCN(CCO)CC2)n1` [dasatanib] + C/C(O)=C(\C#N)C(=O)Nc1cc(Br)ccc1Br [LFM-A13] (first compound 0.02 µM, partner dose 10 µM) are 83.7%, 68.8%, 78.8% and 76.5%.
In the same order, the values of `C#Cc1cccc(Nc2ncnc3cc(OCCOC)c(OCCOC)cc23)c1` [erlotinib] + O=C(Oc1ccc([N+](=O)[O-])cc1)N1CCC(C(O)(c2ccc3c(c2)OCO3)c2ccc3c(c2)OCO3)CC1 [JZL184] (first compound 4 µM, partner dose 5 µM) are 53%, 67.9%, 86.2% and 111%.
On to `COc1cc2ncnc(Nc3ccc(Oc4ccccc4)cc3)c2cc1OC` + C/C(O)=C(\C#N)C(=O)Nc1cc(Br)ccc1Br [LFM-A13] (first compound 10 µM, partner dose 10 µM), for which the cell count in assay [1] was 103%; in assay [2] it was 81.1%; in assay [3] it was 109%; in assay [4], 154%.
For `O=C(O)c1ccc2c(c1)nc(Nc1cccc(Cl)c1)c1ccncc12` + O=C(Oc1ccc([N+](=O)[O-])cc1)N1CCC(C(O)(c2ccc3c(c2)OCO3)c2ccc3c(c2)OCO3)CC1 [JZL184] (first compound 2 µM, partner dose 5 µM), the cell count was 84% in assay [1], 84% in assay [2], 80.3% in assay [3] and 93.3% in assay [4].
On to `Cc1cc([N+](=O)[O-])ccc1NS(=O)(=O)c1cc(Cl)ccc1Cl` + O=C(Oc1ccc([N+](=O)[O-])cc1)N1CCC(C(O)(c2ccc3c(c2)OCO3)c2ccc3c(c2)OCO3)CC1 [JZL184] (first compound 5 µM, partner dose 5 µM), for which the cell count in assay [1] was 74%; in assay [2], 82.3%; in assay [3], 84.4%; in assay [4] it was 73.6%.

(Values after the supplement of paper PMC4604168 (melanoma cell lines).)
